# Reference: PubChem BioAssay AID485360 (National Center for Advancing Translational Sciences (NCATS), 2010)
# The whole screen tested about 230,000 compounds, of which about 1,500 (0.65%) were called active. Inconclusive means that the source gave no clear call. Such entries were picked first, then a sample of the others. Calls come from the whole dose curve; as a rule, active = well fitted inhibition curve with a large enough effect; inconclusive = small, poorly fitted or top-dose-only effect; inactive = no such curve, though single readings can be large or run the other way. Where the call is inconclusive, the potency comes from a doubtful curve fit.
# Target: Lethal(3)malignant brain tumor-like protein 1 (Homo sapiens) (UniProt Q9Y468)
# Assay: qHTS Assay for the Inhibitors of L3MBTL1; note: nearly all actives have a fitted effect of over 60% in size
# Conditions: AlphaScreen L3MBTL1–H3K9me1 peptide binding; activity, negative = inhibition: at 57.1 µM (top of the series)
# Procedure, shortened: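 L3MBTL1 (50 nM) pre-complexed 30 min with biotinylated H3(1-15)K9me1 peptide (75 nM), then compounds added for 30 min at room temperature; AlphaScreen streptavidin donor/nickel chelate acceptor beads (10 ug/mL final) read after 30 min dark incubation.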
# % is set by controls: 0 for no effect and ±100 for the full control effect; potency is the fitted concentration of half-maximal effect; tags give direction and shape of the fitted curve.
# Chain of UniProt Q9Y468 (Q9Y468 whole entry, looked up): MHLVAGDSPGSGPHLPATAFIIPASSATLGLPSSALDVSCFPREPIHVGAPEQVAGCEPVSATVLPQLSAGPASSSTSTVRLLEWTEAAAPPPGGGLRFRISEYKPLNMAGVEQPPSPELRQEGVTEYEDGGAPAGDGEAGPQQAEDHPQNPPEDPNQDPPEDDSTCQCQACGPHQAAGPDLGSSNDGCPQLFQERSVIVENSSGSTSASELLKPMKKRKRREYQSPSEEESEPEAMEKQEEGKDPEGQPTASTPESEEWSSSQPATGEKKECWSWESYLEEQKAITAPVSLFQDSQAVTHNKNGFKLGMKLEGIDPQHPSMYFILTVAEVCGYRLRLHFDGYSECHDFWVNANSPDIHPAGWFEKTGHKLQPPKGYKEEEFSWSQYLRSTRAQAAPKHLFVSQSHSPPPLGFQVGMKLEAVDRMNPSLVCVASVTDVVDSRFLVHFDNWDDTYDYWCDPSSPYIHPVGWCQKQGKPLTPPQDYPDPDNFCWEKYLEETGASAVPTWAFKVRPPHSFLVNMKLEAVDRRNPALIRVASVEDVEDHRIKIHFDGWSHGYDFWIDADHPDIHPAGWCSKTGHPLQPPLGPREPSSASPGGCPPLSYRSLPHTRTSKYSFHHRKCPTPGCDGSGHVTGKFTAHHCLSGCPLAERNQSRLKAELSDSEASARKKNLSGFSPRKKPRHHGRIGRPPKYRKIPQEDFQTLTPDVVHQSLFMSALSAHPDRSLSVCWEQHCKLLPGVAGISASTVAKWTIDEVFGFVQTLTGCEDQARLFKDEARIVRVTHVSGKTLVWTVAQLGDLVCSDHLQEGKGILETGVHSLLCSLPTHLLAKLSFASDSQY
Compound,Potency,"activity, negative = inhibition"
O=c1cc(CSc2nnc(-c3cccs3)n2Cc2ccccc2)nc2sc3ccccc3n12,"inconclusive: 20 µM [inhibitor, partial curve]",
CCN1CCN(C(C(=O)NC2CCCC2)c2cc3c(cc2[N+](=O)[O-])OCO3)CC1 (stereo not drawn),"inconclusive: 7.94 µM [inhibitor, partial curve]",
Cc1cc(C(=O)COC(=O)C2=NNC(=O)CC2)c(C)n1CCc1ccccc1,"inconclusive: 10 µM [inhibitor, partial curve, poor fit]",
CCCNc1c(F)c(F)c2c(C)c3ccccc3nc2c1F,inactive,
CC1=NN(c2ccc([N+](=O)[O-])cc2)C(=O)/C1=C\N(C)C,inactive,
Cc1ccc2nc(N3C(=O)C(O)=C(C(=O)c4ccc(C)o4)C3c3ccc(O)cc3)sc2c1 (stereo not drawn),"inconclusive: 39.8 µM [inhibitor, single point]",
Nc1cc(-c2ccncc2)c[nH]c1=O,,inconclusive: -94.3% [inhibitor]
CCc1cccc(NC(=O)CCS(=O)(=O)c2cc3c(cc2C)NC(=O)CO3)c1,inactive,
O=c1c2ccccc2nc2n1C(CSCc1ccccc1)CS2 (stereo not drawn),"inconclusive: 5.62 µM [inhibitor, single point]",
Cn1c(=O)oc2cc(S(=O)(=O)NCCC(=O)NCCc3ccccc3)ccc21,"inconclusive: 6.31 µM [inhibitor, single point]",
O=C(Nc1cccc([N+](=O)[O-])c1)c1cc2ccccc2cc1O,"inconclusive: 22.4 µM [inhibitor, partial curve]",
CCc1ccc2[nH]c(O)c(N=NC3=NC(=O)CS3)c2c1,"inconclusive: 28.2 µM [inhibitor, single point]",
Cc1ccc(OCC(=O)NC(C)c2ccccc2)c([N+](=O)[O-])n1 (stereo not drawn),"inconclusive: 0.631 µM [inhibitor, full curve, poor fit]",
CCn1c(SCC(=O)N/N=C/c2ccc(C)o2)nnc1-c1ccc(C(C)(C)C)cc1,inactive,
CN(Cc1cnn(C)c1)C(=O)CC1C(=O)NCCN1Cc1cccc(Oc2ccccc2)c1 (stereo not drawn),inactive,
COc1ccc(NC(=O)CC2SC(=N)N(c3ccccc3)C2=O)c(OC)c1 (stereo not drawn),"inconclusive: 28.2 µM [inhibitor, single point]",
COc1ccccc1-n1cnnc1SCC(=O)c1cc(C)n(Cc2cccs2)c1C,inactive,
O=C(/C=C/c1ccco1)Nc1cccc2cccnc12,"inconclusive: 31.6 µM [inhibitor, single point]",
CSc1nc2c(c(=O)[nH]c(=O)n2C)n1C/C=C(\C)Cl,inactive,
COc1ccc(Nc2ccc(OC)cc2)cc1,active: 15.8 µM,
O=C(O)c1ccc(-n2c(-c3ccccc3)n[nH]c2=S)cc1,inactive,
CSc1ccccc1NC(=O)c1noc2c1CCC2,active: 14.1 µM,
COCCSc1ccccc1C(=O)NCc1ccc2c(c1)OCO2,inactive,
CC(C)Cc1nc(N2CCN(C(=O)c3ccco3)CC2)c(C#N)c2c1CCC2,"inconclusive: 15.8 µM [inhibitor, partial curve]",

Compound,Potency,"activity, negative = inhibition"
COc1ccc(-c2nc3c4ccccc4ccn3c2CN2CCOCC2)cc1OC,inactive,
CCc1ccc(S(=O)(=O)Nc2cc(SCC(=O)O)c(O)c3ccccc23)cc1,"inconclusive: 11.2 µM [inhibitor, partial curve]",
COc1ccc2sc(N(CCCN(C)C)C(=O)c3ccc(S(=O)(=O)N(C)Cc4ccccc4)cc3)nc2c1,inactive,
O=C(Nc1ccc2c(c1)OCO2)c1cc(-c2cccnc2)nc2ccccc12,"inconclusive: 28.2 µM [inhibitor, single point]",
Cc1cc(NC(=O)CCCS(=O)(=O)c2nc(-c3cccs3)cc(C(F)(F)F)n2)no1,inactive,
Nc1ccccc1N=Cc1ccc(-c2cccc(Cl)c2)o1,inactive,
CCN(C(=O)COC(=O)COc1ccccc1Cl)c1c(N)n(Cc2ccccc2)c(=O)[nH]c1=O,"inconclusive: 39.8 µM [inhibitor, single point]",
CN(C)c1oc(-c2ccc(Cl)cc2)nc1S(=O)(=O)c1ccccc1,inactive,
COc1ccc(NC(=O)c2cc(-c3ccc(C)o3)nc3ccccc23)cc1OC,"inconclusive: 25.1 µM [inhibitor, single point]",
Cc1ccc2cc3cc(C(=O)NCc4ccco4)oc3nc2c1,"inconclusive: 28.2 µM [inhibitor, single point]",
COCCSc1ccccc1C(=O)Nc1ccc(Br)cc1,,inactive: 4.32% [at 11.4 µM]
O=C(CCCN1C(=O)c2cccc3cccc(c23)C1=O)N1CCN(c2ccccn2)CC1,"inconclusive: 0.708 µM [inhibitor, single point]",
COc1ccc2c(CC(=O)OCC(=O)Nc3cccc(C)c3)coc2c1,"inconclusive: 39.8 µM [inhibitor, single point]",
O=C(CN1C(=O)c2cccnc2C1=O)c1ccccc1,"inconclusive: 8.91 µM [inhibitor, partial curve]",
CC(C)CC(=O)Nc1sc2c(c1C(=O)O)CCCCC2,inactive,
Cc1cccc(N=C2NC(=O)/C(=C/C=C/c3ccco3)S2)c1,"inconclusive: 39.8 µM [inhibitor, single point]",
CC(C)c1nc2sc3c(SCC(=O)NCc4ccco4)ncnc3c2c2c1CCC2,"inconclusive: 7.94 µM [inhibitor, full curve]",
COc1ccc(C(N)c2nccc3cc(OC)c(OC)cc23)cc1OC (stereo not drawn),active: 28.2 µM,
Cc1cccc(-c2nc(C#N)c(NCc3ccco3)o2)c1,"inconclusive: 25.1 µM [inhibitor, single point]",
O=C(c1cc(-c2ccncc2)nc2ccc(Cl)cc12)N1CCN(Cc2ccc3c(c2)OCO3)CC1,inactive,
COc1cccc(-c2nnc(NC(=O)Cc3cccs3)s2)c1,"inconclusive: 22.4 µM [inhibitor, single point]",
Cn1nnnc1SCC(=O)Nc1ccccc1Cl,"inconclusive: 6.31 µM [inhibitor, single point]",
CN(Cc1ccccc1)C1CCN(Cc2ccccc2[N+](=O)[O-])CC1,inactive,
CCOC(=O)CN1C(=O)C(O)(CC(=O)c2ccco2)c2ccccc21 (stereo not drawn),inactive,
